For at least one compound, name, drawing or mass did not settle the structure. Some results were stated once for a whole list of compounds, not compound by compound.
Test system: not listed separately
Test: Uptake of R-baclofen following intracolonic administration in rats
Type: in vivo
Settings: 10 mg baclofen equivalents per kg
In the case of `CC(OC(=O)NC[C@H](CC(=O)[O-])c1ccc(Cl)cc1)OC(=O)C(C)C.[Na+]` (stereo partly drawn) [(33), Sodium 4-[(1-Isobutanoyloxyethoxy)carbonylamino]-(3R)-(4-chlorophenyl)-butanoate], the “area under the baclofen plasma concentration vs. time curve (AUC) relative to colonic administration of R-baclofen itself” value was over 2 fold and the “maximum plasma concentration of R-baclofen (Cmax) relative to colonic administration of R-baclofen itself” value was over 2 fold.
In the case of `CCCC(=O)OC(C)OC(=O)NC[C@H](CC(=O)[O-])c1ccc(Cl)cc1.[Na+]` (stereo partly drawn) [(32), Sodium 4-[(1-Butanoyloxyethoxy)carbonylamino]-(3R)-(4-chlorophenyl)-butanoate], the “area under the baclofen plasma concentration vs. time curve (AUC) relative to colonic administration of R-baclofen itself” value was over 2 fold and the “maximum plasma concentration of R-baclofen (Cmax) relative to colonic administration of R-baclofen itself” value was over 2 fold.
In the case of `CC(=O)OC(OC(=O)NC[C@H](CC(=O)[O-])c1ccc(Cl)cc1)C(C)C.[Na+]` (stereo partly drawn) [(23), Sodium 4-[(1-Acetoxyisobutoxy)carbonylamino]-(3R)-(4-chlorophenyl)-butanoate], the “area under the baclofen plasma concentration vs. time curve (AUC) relative to colonic administration of R-baclofen itself” value was over 2 fold and the “maximum plasma concentration of R-baclofen (Cmax) relative to colonic administration of R-baclofen itself” value was over 2 fold.

Test system: Caco-2 cells
Test: Caco-2 cellular permeability of prodrugs
Type: in vitro ADME
Settings: Caco-2 monolayer, 200 μM prodrug, pH 6.5 apical / pH 7.4 basolateral, efflux pump inhibitors present
For `CCCC(=O)OCOC(=O)NC[C@H](CC(=O)[O-])c1ccc(Cl)cc1.[Na+]` [(16), Sodium 4-[(Butanoyloxymethoxy)carbonylamino]-(3R)-(4-chlorophenyl)-butanoate], the “Papp (apical to basolateral)” value was 6.1 ×10⁻⁶ cm/s and the “Papp (basolateral to apical)” value was 1.2 ×10⁻⁶ cm/s.
For `CC(=O)OC(C)OC(=O)NC[C@H](CC(=O)[O-])c1ccc(Cl)cc1.[Na+]` (stereo partly drawn) [(30), Sodium 4-[(1-Acetoxyethoxy)carbonylamino]-(3R)-(4-chlorophenyl)-butanoate], the “Papp (apical to basolateral)” value was 8.7 ×10⁻⁶ cm/s and the “Papp (basolateral to apical)” value was 2.3 ×10⁻⁶ cm/s.
For `CC(C)C(=O)OCOC(=O)NC[C@H](CC(=O)[O-])c1ccc(Cl)cc1.[Na+]` [(18), Sodium 4-[(Isobutanoyloxymethoxy)carbonylamino]-(3R)-(4-chlorophenyl)-butanoate], the “Papp (apical to basolateral)” value was 6.4 ×10⁻⁶ cm/s and the “Papp (basolateral to apical)” value was 5.6 ×10⁻⁶ cm/s.
